{"source": "patent US20160250303A1", "about": "“PERFORIN-2 ACTIVATORS AND INHIBITORS AS DRUG TARGETS FOR INFECTIOUS DISEASE AND GUT INFLAMMATION” (UNIVERSITY OF MIAMI, priority 2013, published 2016)", "tested_on": "P-2 mediated bacterial killing", "test": "Perforin-2 mediated killing of MRSA by BV2 phagocytic cells in vitro (FIG. 14c)", "conditions": "phagocytic cell BV2, in vitro", "data": [{"smiles": "NS(=O)(=O)OC[C@@H]1CC(n2ccc3c(N[C@H]4CCc5ccccc54)ncnc32)C[C@@H]1O", "note": "(stereo partly shown) [MLN 4924]", "values": [{"measurement": "P-2 mediated bacterial killing", "value": "blocks P-2 mediated bacterial killing in vitro"}]}]}
